Laboratory results published in publication PMC6451091.
Some of the results follow. For part of these data: At the low end of the ranking the order means little. For part of these data: Measured with an extract: partners may take part in the binding.

Tests used:
Conditions in all cases: 20 mM HEPES pH 7.9, 100 mM NaCl, 1 mM DTT, 0.2 mg/mL BSA, 0.02% Triton X-100, 2% milk, 0.4 mg/mL salmon testes DNA; 1 h; temperature not stated; high values mean tight binding; double strand, one strand shown; sequences stand for … in GCCTAGCAC…GTGCTAGGTCTTGATTCGCTTGACGCTGCTG
[1] = target: PU.1 (IVT) (UniProt P17947); assay: protein-binding microarray (PBM)
[2] = target: PU.1 (endogenous, THP-1 nuclear extract) (UniProt P17947); assay: nuclear extract protein-binding microarray (nextPBM)
[3] = target: T1, FLI1 (endogenous, THP-1 nuclear extract) (UniProt Q01543); assay: as above
T1 sequence: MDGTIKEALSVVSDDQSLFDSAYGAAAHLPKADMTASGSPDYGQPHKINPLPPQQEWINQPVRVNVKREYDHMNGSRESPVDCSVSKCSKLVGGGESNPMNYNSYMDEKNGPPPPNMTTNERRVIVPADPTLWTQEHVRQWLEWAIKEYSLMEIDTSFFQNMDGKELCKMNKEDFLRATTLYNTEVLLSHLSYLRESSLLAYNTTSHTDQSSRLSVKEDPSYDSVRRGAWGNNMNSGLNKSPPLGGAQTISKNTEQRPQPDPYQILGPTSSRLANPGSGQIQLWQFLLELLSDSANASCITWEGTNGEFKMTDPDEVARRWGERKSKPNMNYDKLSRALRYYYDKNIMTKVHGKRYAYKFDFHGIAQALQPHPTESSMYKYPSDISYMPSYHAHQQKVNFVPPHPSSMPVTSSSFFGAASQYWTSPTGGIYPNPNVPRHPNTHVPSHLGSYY

Sequence	binding signal [1]	binding signal [2]	binding signal [3]
GGGAAGGGGAAGTGGTGGCA	4.91 z-score	5.53 z-score	2.58 z-score
TCTTGGAGGAAGTGGGGGGA	2.85 z-score	2.89 z-score	2.3 z-score
AGAAAGAGGAAGTGCAACCA	8.06 z-score	7.4 z-score	4.62 z-score
TCATAGAGGAAGTGACACTG	4.52 z-score	5.19 z-score	3.02 z-score
GCGAAGGGGAAGTCTCGATG	3.74 z-score	4 z-score	1.74 z-score
ACAAAGGGGAAGTGGAAGAA	6.15 z-score	6.62 z-score	2.63 z-score
AAAAAAAAGAACTGGCTAGA	0.758 z-score	0.607 z-score	-0.0256 z-score
GATAAGAGGAAGTCATCTGT	6.17 z-score	6.49 z-score	3.17 z-score
ATATTAAGGAAGTGCTGTGG	4.49 z-score	4.49 z-score	2.2 z-score
CAAAAGAGGAACTCAGGACT	6.31 z-score	6.69 z-score	2.19 z-score
TGAAAGAGGAAGTGGAGGGG	6.94 z-score	7.25 z-score	4.06 z-score
GGAAAGGGGAAGTCTACTGG	6.46 z-score	6.83 z-score	2.68 z-score
AGAAGGGGGAAGTGGAATCC	4.98 z-score	5.62 z-score	2.12 z-score
GATAAGAGGAAGCCCTCTGT	2.68 z-score	3.14 z-score	1.53 z-score
CGAAAGGGGATGTGCTAAAC	1.8 z-score	2.13 z-score	1.09 z-score
AAAATGAGGAAGTGGAAGGG	8.15 z-score	7.35 z-score	3.82 z-score
AGAGAGAGGAAGTGCCAGAC	4.05 z-score	4.36 z-score	2.61 z-score
CGAAACGGGAAGTGCTAAAC	6.14 z-score	6.48 z-score	3 z-score
GAAATAGGGAAGTGTGAGTT	6.74 z-score	6.83 z-score	2.72 z-score
AAGAAGAGGAAGTCATAGGG	5.85 z-score	6.47 z-score	3.14 z-score
GTTAAAGGGAAGTCCCCAAA	3.13 z-score	3.24 z-score	1.37 z-score

Sequence	binding signal [1]	binding signal [2]	binding signal [3]
GCAAAGAGGAAGTCAAACTG	5.89 z-score	6.53 z-score	3.18 z-score
AAGAAGAGGAAGTGATGTTC	7.01 z-score	6.77 z-score	3.76 z-score
TGAAAGGGGAAGTGCCACTT	7.18 z-score	7.17 z-score	3.29 z-score
AGAACAAGGAAGTGAGCTAT	3.85 z-score	4.54 z-score	1.97 z-score
CTTGAGAGGAAGTGGGAAAA	3.43 z-score	3.63 z-score	2.74 z-score
CATTTGTAGAAGTACTGTGC	0.808 z-score	0.989 z-score	-0.336 z-score
GAGAAAAGGAAGTGGCTCTT	3.67 z-score	3.6 z-score	2.63 z-score
GAAGGGAGGAAGTGGGGGAG	3.36 z-score	3.3 z-score	2.51 z-score
ACAAAAAGGAACTGTGCCCA	1.91 z-score	1.41 z-score	0.511 z-score
TGTGAAAGGAAGTCTCTGGG	1.39 z-score	1.43 z-score	1.95 z-score
AGGATGAGGAAGTGTGTGAG	5.44 z-score	5.81 z-score	2.53 z-score
AAATTAGGGAAGTGTAACCA	6.06 z-score	6.35 z-score	2.17 z-score
AAATAGAGGAAGTGTTCAGT	7.1 z-score	6.85 z-score	3.47 z-score
AAAAAGAGGAAATGCGTTGC	6.2 z-score	6.61 z-score	3.06 z-score
TTAAAAGGGAAGTGACTCTT	5.41 z-score	6.13 z-score	2.56 z-score
AATAAAAGGAAGTGAACCAA	4.04 z-score	4.06 z-score	2.42 z-score
GTAAAGAGGAAGTGAAAATG	7.01 z-score	7.09 z-score	3.72 z-score
AAAATGAGGAACTGCTGTCT	6.9 z-score	6.74 z-score	2.57 z-score
GAAATGAGGAAGTTGAGAGC	8.36 z-score	7.31 z-score	3.9 z-score
GAAAAAAGGAAGTCAAATTG	5.97 z-score	5.67 z-score	2.6 z-score
AGAATGAGGAAGTGGCATTT	8.08 z-score	7.49 z-score	4.4 z-score

Sequence	binding signal [1]	binding signal [2]	binding signal [3]
GGGAGGAGGAAGTGGAGGGC	4.16 z-score	4.32 z-score	2.62 z-score
CCTTAGAGGAAGTGGCATTT	4.27 z-score	4.56 z-score	2.73 z-score
CAATTGAGGAACTGAATTTT	5.21 z-score	5.65 z-score	1.36 z-score
GATAAGATGAAGTCCTCTGT	0.661 z-score	0.282 z-score	-0.195 z-score
AAGAAAGGGAAGTCAGACCA	4.06 z-score	4.31 z-score	1.65 z-score
AGCATGAGGAAGTGGGACCT	4.6 z-score	5.25 z-score	2.37 z-score
CTGTTAGGGAAGTGCCTGGG	3.51 z-score	3.67 z-score	1.19 z-score
CAAATGAGGAACTGTTGCGG	5.57 z-score	5.99 z-score	1.87 z-score
CCAAAGAGGAAGTCTCAAAA	5.42 z-score	6.38 z-score	2.53 z-score
TGTAAGAGGAAGTGCAACCA	5.84 z-score	6.32 z-score	3.38 z-score
AAGAAGGGGAAGTGACTTGC	6.45 z-score	6.5 z-score	3.22 z-score
GGAAAGAGGAACTAGCAAAG	6.7 z-score	6.75 z-score	2.77 z-score
AGTAAGAGGAACTGAATCAC	4.29 z-score	4.09 z-score	1.38 z-score
CAAAAAGTGAAGTGGATGCT	1.81 z-score	1.43 z-score	0.507 z-score
AAGAGGAGGAAGTGAGAGAG	4.33 z-score	4.26 z-score	2.53 z-score
TGAAAGAGGTAGTGCAACCA	1.11 z-score	1.74 z-score	-0.181 z-score
AGAAAGAGGAACTACAAGGC	6.87 z-score	6.75 z-score	2.91 z-score
GGGCTGAGGAAGTGGAAGGG	2.47 z-score	2.55 z-score	2.17 z-score
GAATTGAGGAAGTCCTCCCA	6.34 z-score	6.64 z-score	2.88 z-score
GGGAAGGGGAAGTGAGGAGT	4.95 z-score	5.62 z-score	2.54 z-score
TAAAAAAGGAACTGGCTAGA	3.1 z-score	3.08 z-score	1.24 z-score
